According to the supplement of paper PMC12645437, “Orthogonal IMiD-Degron Pairs Induce Selective Protein Degradation in Cells” (ACS Chemical Biology, 2025):
This is one part of the list.

molecular target: no compound (DMSO); test: log2 fold change of degron read counts, EGFP-low vs EGFP+ sorted cells; higher = lower degron-EGFP level without compound (poor expression or instability); settings: compound: DMSO control; 18 h
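Further: jurkat cells carrying a lentiviral library of mutant zinc finger degrons fused to EGFP plus mCherry, mCherry+ cells FACS sorted, degron abundance counted by next-generation sequencing.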

Sequence | log2 fold change of degron read counts
FFCDICGATFTQKGNLLRHIKL | -0.418
FSCNQCGRKFTQKGNLLRHIKL | -0.0779
FTCDICGADFTQKGNLLRHIKL | -2.72
FNCPICGRFFTQKGNLLRHIKL | 0.319
LCCEICGFACTQKGNLLRHIKL | -0.547
FHCEICGHMFTQKGNLLRHIKL | -0.838
FVCDICGAFFTQKGNLLRHIKL | -0.549
FNCNVCGAWFTQKGNLLRHIKL | 0.57
LKCNQCGFWCTQKGNLLRHIKL | 1.32
LTCPICGFMCTQKGNLLRHIKL | 1.01
FTCNQCGHDFTQKGNLLRHIKL | -1.79
FICEICGRSFTQKGNLLRHIKL | -2.16
FQCDQCGAAFTQKGNLLRHIKL | -1.74
FRCNQCGRDFTQKGNLLRHIKL | -0.625
FKCEICGHVFTQKGNLLRHIKL | -2.78
FWCDQCGAMFTQKGNLLRHIKL | -0.643
FACNICGARFTQKGNLLRHIKL | 0.512
FNCEICGACFTQKGNLLRHIKL | -0.629
LECEICGFKCTQKGNLLRHIKL | -2.39
FKCNVCGAHFTQKGNLLRHIKL | -0.522
FCCSVCGHCFTQKGNLLRHIKL | 0.538
LRCEICGFDCTQKGNLLRHIKL | -0.206
FYCPVCGAGFTQKGNLLRHIKL | -0.759
LWCPICGFMCTQKGNLLRHIKL | 3.07
FLCDVCGATFTQKGNLLRHIKL | -2.36

Sequence | log2 fold change of degron read counts
FWCNICGAFFTQKGNLLRHIKL | 1.86
FYCEICGRLFTQKGNLLRHIKL | 0.282
FGCNVCGAMFTQKGNLLRHIKL | -0.022
FACPICGRPFTQKGNLLRHIKL | 0.16
FECNQCGREFTQKGNLLRHIKL | -1.66
FQCDICGAWFTQKGNLLRHIKL | -0.123
FECEQCGAIFTQKGNLLRHIKL | -1.68
FWCNQCGAPFTQKGNLLRHIKL | 1.08
FACEQCGANFTQKGNLLRHIKL | -1.94
FDCEQCGANFTQKGNLLRHIKL | -2.41
FGCEVCGAAFTQKGNLLRHIKL | -1.46
FSCEVCGADFTQKGNLLRHIKL | -2.09
LNCEICGFRCTQKGNLLRHIKL | 0.475
FGCSVCGHRFTQKGNLLRHIKL | 0.291
FRCPQCGAWFTQKGNLLRHIKL | 0.823
FRCEICGAYFTQKGNLLRHIKL | -0.402
FSCPVCGAVFTQKGNLLRHIKL | -0.191
LVCNQCGFMCTQKGNLLRHIKL | -0.0588
FICNVCGAKFTQKGNLLRHIKL | -1.81
FYCDQCGAKFTQKGNLLRHIKL | -1.03
FTCDICGAQFTQKGNLLRHIKL | -1.12
FKCPQCGATFTQKGNLLRHIKL | -1.08
FICNQCGHPFTQKGNLLRHIKL | -0.132
FWCEQCGARFTQKGNLLRHIKL | -1.21
FQCEICGALFTQKGNLLRHIKL | -1.52
